{"source": "a collection of fitness landscapes (doi:10.1016/j.celrep.2020.107928)", "parents": {"B1": {"name": "Caulobacter ParB omega fusion; a variant is named by its letters at X, in order, B8GW30 (parent)", "chain": "MESVVVGEPGMSEGRRGLGRGLSALLGEVDAAPAQAPGEQLGGSREAPIEILQRNPDQPRRTFREEDLEDLSNSIREKGVLQPILVRPSPDTAGEYQIVAGERAWRAAQRAGLKTVPIMVRELDDLAVLEIGIIENVQRADLNVLEEALSYKVLMEKFERTQENIAQTIGKSXSHVANXMRLLXLPDEVQSYLVSGELTAXHARAIAAAADPVALAKQIIEGGLSVRETEALARKAPNLSAGKSKGGRPPRVKDTDTQALESDLSSVLGLDVSIDHRGSTGTLTITYATLEQLDDLCNRLTRGI"}}, "note": "The full ranking holds about 81,000 sequences; the median of “one-hybrid fitness for binding parS DNA” is about -0.17, and the highest 2% start at about 0.51. The list shows a part of the results.", "data": [{"variants_of": "B1", "assay": "one-hybrid fitness for binding parS DNA (scaled: cognate 1, non-cognate 0); higher = stronger binding", "details": "with parS DNA site", "how_it_was_run": "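Fitness is the rescaled log change in variant-to-wild-type read ratio, measured by Illumina sequencing of plasmids before and after bacterial one-hybrid selection. The scale puts cognate at 1 and non-cognate at 0. Selection of Caulobacter ParB libraries, four specificity codons randomised, took place in E. coli USO with a HIS3 reporter, site 19 bp from the promoter, over 48 hours at 37°C on M9-minus-histidine with 0.1 mM IPTG and 5 mM 3-AT.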", "values": [{"variant": "DTNN", "one-hybrid fitness for binding parS DNA": "≤ 0.2"}, {"variant": "QMHY", "one-hybrid fitness for binding parS DNA": "≤ 0.2"}, {"variant": "RFQN", "one-hybrid fitness for binding parS DNA": 0.457}, {"variant": "RFNP", "one-hybrid fitness for binding parS DNA": "≤ 0.2"}, {"variant": "SSRS", "one-hybrid fitness for binding parS DNA": "≤ 0.2"}, {"variant": "TSTF", "one-hybrid fitness for binding parS DNA": "≤ 0.2"}, {"variant": "SNNS", "one-hybrid fitness for binding parS DNA": "≤ 0.2"}, {"variant": "NHPI", "one-hybrid fitness for binding parS DNA": "≤ 0.2"}, {"variant": "RNWA", "one-hybrid fitness for binding parS DNA": 0.294}, {"variant": "TNYY", "one-hybrid fitness for binding parS DNA": "≤ 0.2"}, {"variant": "RQFV", "one-hybrid fitness for binding parS DNA": "≤ 0.2"}, {"variant": "NQQK", "one-hybrid fitness for binding parS DNA": "≤ 0.2"}, {"variant": "NRYV", "one-hybrid fitness for binding parS DNA": "≤ 0.2"}, {"variant": "VRLN", "one-hybrid fitness for binding parS DNA": "≤ 0.2"}, {"variant": "VDNP", "one-hybrid fitness for binding parS DNA": "≤ 0.2"}, {"variant": "GRTC", "one-hybrid fitness for binding parS DNA": "≤ 0.2"}, {"variant": "SWSN", "one-hybrid fitness for binding parS DNA": "≤ 0.2"}, {"variant": "RHPD", "one-hybrid fitness for binding parS DNA": "≤ 0.2"}, {"variant": "RNTL", "one-hybrid fitness for binding parS DNA": "≤ 0.2"}, {"variant": "HRMT", "one-hybrid fitness for binding parS DNA": "≤ 0.2"}, {"variant": "TDKC", "one-hybrid fitness for binding parS DNA": "≤ 0.2"}, {"variant": "KSRK", "one-hybrid fitness for binding parS DNA": "≤ 0.2"}, {"variant": "GSIS", "one-hybrid fitness for binding parS DNA": "≤ 0.2"}, {"variant": "HAPR", "one-hybrid fitness for binding parS DNA": "≤ 0.2"}, {"variant": "SGAS", "one-hybrid fitness for binding parS DNA": "≤ 0.2"}, {"variant": "WYRR", "one-hybrid fitness for binding parS DNA": "≤ 0.2"}, {"variant": "VHPC", "one-hybrid fitness for binding parS DNA": "≤ 0.2"}, {"variant": "TYTY", "one-hybrid fitness for binding parS DNA": "≤ 0.2"}, {"variant": "KTGM", "one-hybrid fitness for binding parS DNA": "≤ 0.2"}, {"variant": "LILL", "one-hybrid fitness for binding parS DNA": "≤ 0.2"}, {"variant": "HRDI", "one-hybrid fitness for binding parS DNA": "≤ 0.2"}, {"variant": "RPQR", "one-hybrid fitness for binding parS DNA": "≤ 0.2"}, {"variant": "TRWY", "one-hybrid fitness for binding parS DNA": "≤ 0.2"}, {"variant": "CFTC", "one-hybrid fitness for binding parS DNA": "≤ 0.2"}, {"variant": "FDKN", "one-hybrid fitness for binding parS DNA": "≤ 0.2"}, {"variant": "ADSV", "one-hybrid fitness for binding parS DNA": "≤ 0.2"}, {"variant": "RPNC", "one-hybrid fitness for binding parS DNA": "≤ 0.2"}, {"variant": "VMDE", "one-hybrid fitness for binding parS DNA": "≤ 0.2"}, {"variant": "CSNG", "one-hybrid fitness for binding parS DNA": "≤ 0.2"}, {"variant": "CLTG", "one-hybrid fitness for binding parS DNA": "≤ 0.2"}, {"variant": "SKSV", "one-hybrid fitness for binding parS DNA": "≤ 0.2"}, {"variant": "PQHE", "one-hybrid fitness for binding parS DNA": "≤ 0.2"}, {"variant": "QELI", "one-hybrid fitness for binding parS DNA": "≤ 0.2"}, {"variant": "GRLI", "one-hybrid fitness for binding parS DNA": "≤ 0.2"}, {"variant": "VNKR", "one-hybrid fitness for binding parS DNA": "≤ 0.2"}, {"variant": "TVMI", "one-hybrid fitness for binding parS DNA": "≤ 0.2"}, {"variant": "KMSE", "one-hybrid fitness for binding parS DNA": "≤ 0.2"}, {"variant": "WLDW", "one-hybrid fitness for binding parS DNA": "≤ 0.2"}, {"variant": "QMCT", "one-hybrid fitness for binding parS DNA": "≤ 0.2"}, {"variant": "QDHA", "one-hybrid fitness for binding parS DNA": "≤ 0.2"}, {"variant": "VIGR", "one-hybrid fitness for binding parS DNA": "≤ 0.2"}, {"variant": "ELCG", "one-hybrid fitness for binding parS DNA": "≤ 0.2"}, {"variant": "PHNR", "one-hybrid fitness for binding parS DNA": "≤ 0.2"}, {"variant": "LLLW", "one-hybrid fitness for binding parS DNA": "≤ 0.2"}, {"variant": "LWEA", "one-hybrid fitness for binding parS DNA": "≤ 0.2"}, {"variant": "FTPA", "one-hybrid fitness for binding parS DNA": "≤ 0.2"}, {"variant": "FWTG", "one-hybrid fitness for binding parS DNA": "≤ 0.2"}, {"variant": "MADS", "one-hybrid fitness for binding parS DNA": "≤ 0.2"}, {"variant": "FPTR", "one-hybrid fitness for binding parS DNA": "≤ 0.2"}, {"variant": "EEAY", "one-hybrid fitness for binding parS DNA": "≤ 0.2"}, {"variant": "KTAS", "one-hybrid fitness for binding parS DNA": "≤ 0.2"}, {"variant": "WWTL", "one-hybrid fitness for binding parS DNA": "≤ 0.2"}, {"variant": "YRMG", "one-hybrid fitness for binding parS DNA": "≤ 0.2"}, {"variant": "ARHN", "one-hybrid fitness for binding parS DNA": "≤ 0.2"}, {"variant": "QKYP", "one-hybrid fitness for binding parS DNA": "≤ 0.2"}, {"variant": "QVIA", "one-hybrid fitness for binding parS DNA": "≤ 0.2"}, {"variant": "DGLR", "one-hybrid fitness for binding parS DNA": "≤ 0.2"}, {"variant": "CLVI", "one-hybrid fitness for binding parS DNA": "≤ 0.2"}, {"variant": "QCCP", "one-hybrid fitness for binding parS DNA": "≤ 0.2"}, {"variant": "MYYT", "one-hybrid fitness for binding parS DNA": "≤ 0.2"}, {"variant": "NMLW", "one-hybrid fitness for binding parS DNA": "≤ 0.2"}, {"variant": "HCCG", "one-hybrid fitness for binding parS DNA": "≤ 0.2"}, {"variant": "KARH", "one-hybrid fitness for binding parS DNA": "≤ 0.2"}, {"variant": "TKAG", "one-hybrid fitness for binding parS DNA": "≤ 0.2"}, {"variant": "LRFA", "one-hybrid fitness for binding parS DNA": "≤ 0.2"}, {"variant": "AQML", "one-hybrid fitness for binding parS DNA": "≤ 0.2"}, {"variant": "FTPC", "one-hybrid fitness for binding parS DNA": "≤ 0.2"}, {"variant": "RMVR", "one-hybrid fitness for binding parS DNA": "≤ 0.2"}, {"variant": "RAPC", "one-hybrid fitness for binding parS DNA": 0.485}, {"variant": "VFGM", "one-hybrid fitness for binding parS DNA": "≤ 0.2"}, {"variant": "LVVQ", "one-hybrid fitness for binding parS DNA": "≤ 0.2"}, {"variant": "CVCV", "one-hybrid fitness for binding parS DNA": "≤ 0.2"}, {"variant": "GMHN", "one-hybrid fitness for binding parS DNA": "≤ 0.2"}, {"variant": "MVYT", "one-hybrid fitness for binding parS DNA": "≤ 0.2"}, {"variant": "HYSE", "one-hybrid fitness for binding parS DNA": "≤ 0.2"}, {"variant": "EDPG", "one-hybrid fitness for binding parS DNA": "≤ 0.2"}, {"variant": "CSTM", "one-hybrid fitness for binding parS DNA": "≤ 0.2"}, {"variant": "HWHR", "one-hybrid fitness for binding parS DNA": "≤ 0.2"}, {"variant": "PAGI", "one-hybrid fitness for binding parS DNA": "≤ 0.2"}, {"variant": "ETTQ", "one-hybrid fitness for binding parS DNA": "≤ 0.2"}, {"variant": "SSCI", "one-hybrid fitness for binding parS DNA": "≤ 0.2"}, {"variant": "NVWC", "one-hybrid fitness for binding parS DNA": "≤ 0.2"}, {"variant": "VKVC", "one-hybrid fitness for binding parS DNA": "≤ 0.2"}, {"variant": "PQCS", "one-hybrid fitness for binding parS DNA": "≤ 0.2"}, {"variant": "NIPT", "one-hybrid fitness for binding parS DNA": "≤ 0.2"}, {"variant": "VCQV", "one-hybrid fitness for binding parS DNA": "≤ 0.2"}, {"variant": "ISSR", "one-hybrid fitness for binding parS DNA": "≤ 0.2"}, {"variant": "RCWC", "one-hybrid fitness for binding parS DNA": 0.959}, {"variant": "QTRF", "one-hybrid fitness for binding parS DNA": "≤ 0.2"}, {"variant": "IHKR", "one-hybrid fitness for binding parS DNA": "≤ 0.2"}, {"variant": "WMMG", "one-hybrid fitness for binding parS DNA": "≤ 0.2"}, {"variant": "LFWV", "one-hybrid fitness for binding parS DNA": "≤ 0.2"}, {"variant": "HCPR", "one-hybrid fitness for binding parS DNA": "≤ 0.2"}, {"variant": "GHSL", "one-hybrid fitness for binding parS DNA": "≤ 0.2"}, {"variant": "RSPM", "one-hybrid fitness for binding parS DNA": "≤ 0.2"}, {"variant": "CDVG", "one-hybrid fitness for binding parS DNA": "≤ 0.2"}, {"variant": "MGHS", "one-hybrid fitness for binding parS DNA": "≤ 0.2"}, {"variant": "LGMT", "one-hybrid fitness for binding parS DNA": "≤ 0.2"}, {"variant": "HCET", "one-hybrid fitness for binding parS DNA": "≤ 0.2"}, {"variant": "TWYY", "one-hybrid fitness for binding parS DNA": "≤ 0.2"}, {"variant": "LAET", "one-hybrid fitness for binding parS DNA": "≤ 0.2"}, {"variant": "AYMT", "one-hybrid fitness for binding parS DNA": "≤ 0.2"}, {"variant": "RHGG", "one-hybrid fitness for binding parS DNA": 0.939}, {"variant": "RPHK", "one-hybrid fitness for binding parS DNA": "≤ 0.2"}, {"variant": "QYMP", "one-hybrid fitness for binding parS DNA": "≤ 0.2"}, {"variant": "RCMH", "one-hybrid fitness for binding parS DNA": 0.242}, {"variant": "QECR", "one-hybrid fitness for binding parS DNA": "≤ 0.2"}, {"variant": "KVTG", "one-hybrid fitness for binding parS DNA": "≤ 0.2"}, {"variant": "LFCG", "one-hybrid fitness for binding parS DNA": "≤ 0.2"}, {"variant": "QLMR", "one-hybrid fitness for binding parS DNA": "≤ 0.2"}, {"variant": "HFRP", "one-hybrid fitness for binding parS DNA": "≤ 0.2"}, {"variant": "STHF", "one-hybrid fitness for binding parS DNA": "≤ 0.2"}, {"variant": "SDVR", "one-hybrid fitness for binding parS DNA": "≤ 0.2"}, {"variant": "LPGT", "one-hybrid fitness for binding parS DNA": "≤ 0.2"}, {"variant": "TRPL", "one-hybrid fitness for binding parS DNA": "≤ 0.2"}, {"variant": "VRTA", "one-hybrid fitness for binding parS DNA": "≤ 0.2"}, {"variant": "KSIM", "one-hybrid fitness for binding parS DNA": "≤ 0.2"}, {"variant": "ISSS", "one-hybrid fitness for binding parS DNA": "≤ 0.2"}, {"variant": "KYVN", "one-hybrid fitness for binding parS DNA": "≤ 0.2"}, {"variant": "WYPC", "one-hybrid fitness for binding parS DNA": "≤ 0.2"}, {"variant": "SYKV", "one-hybrid fitness for binding parS DNA": "≤ 0.2"}, {"variant": "DRAA", "one-hybrid fitness for binding parS DNA": "≤ 0.2"}, {"variant": "NSDL", "one-hybrid fitness for binding parS DNA": "≤ 0.2"}, {"variant": "LAPS", "one-hybrid fitness for binding parS DNA": "≤ 0.2"}, {"variant": "YSYN", "one-hybrid fitness for binding parS DNA": "≤ 0.2"}, {"variant": "SQPF", "one-hybrid fitness for binding parS DNA": "≤ 0.2"}, {"variant": "IVRC", "one-hybrid fitness for binding parS DNA": "≤ 0.2"}, {"variant": "NVPA", "one-hybrid fitness for binding parS DNA": "≤ 0.2"}, {"variant": "LGTT", "one-hybrid fitness for binding parS DNA": "≤ 0.2"}, {"variant": "ASYF", "one-hybrid fitness for binding parS DNA": "≤ 0.2"}, {"variant": "FRTG", "one-hybrid fitness for binding parS DNA": "≤ 0.2"}, {"variant": "RHYN", "one-hybrid fitness for binding parS DNA": 0.448}, {"variant": "EYIR", "one-hybrid fitness for binding parS DNA": "≤ 0.2"}, {"variant": "PLKF", "one-hybrid fitness for binding parS DNA": "≤ 0.2"}, {"variant": "YQSS", "one-hybrid fitness for binding parS DNA": "≤ 0.2"}, {"variant": "FLSV", "one-hybrid fitness for binding parS DNA": "≤ 0.2"}, {"variant": "FCKC", "one-hybrid fitness for binding parS DNA": "≤ 0.2"}, {"variant": "PMYQ", "one-hybrid fitness for binding parS DNA": "≤ 0.2"}, {"variant": "LIMV", "one-hybrid fitness for binding parS DNA": "≤ 0.2"}, {"variant": "QWQR", "one-hybrid fitness for binding parS DNA": "≤ 0.2"}, {"variant": "ERAC", "one-hybrid fitness for binding parS DNA": "≤ 0.2"}, {"variant": "KIHT", "one-hybrid fitness for binding parS DNA": "≤ 0.2"}, {"variant": "YDNL", "one-hybrid fitness for binding parS DNA": "≤ 0.2"}]}]}
